Data reported in PubChem BioAssay AID1963576 (National Center for Advancing Translational Sciences (NCATS), 2024).
About 60 (0.1%) of roughly 46,000 compounds were called active. Inconclusive results (about 3%) are left out. Calls follow the shape of the dose curve; as a rule, active = well fitted inhibition curve with a large enough effect; inconclusive = small, poorly fitted or top-dose-only effect; inactive = no such curve, though single readings can be large or run the other way. The list shows a part of the results.

assay: Primary qHTS assay for Inhibitors of ovarian cancer metastasis using an organotypic tumor microenvironment (TME) model.; also: nearly all actives have a fitted effect of over 65% in size;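 as to activity change, negative = inhibition: plate controls were DMSO wells for no effect and tomatine positive control wells for full effect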; details: SKOV3ip1-GFP adhesion/invasion on 3D omental model, fluorescence; series mostly up to 45.8 µM; activity change, negative = inhibition: at the top concentration
How it was run: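 Primary human omental fibroblast/mesothelial 3D culture pre-formed 48 h. SKOV3ip1-GFP cells added with compounds (0.36-46 umol/L), incubated 2 h RT/16 h 37 C, fixed; GFP cells quantified at 488/509 nm.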

SMILES | activity change, negative = inhibition | outcome
COc1ccccc1NC(=O)N1CCN(c2ccc3nnc(-c4ccc(F)cc4)n3n2)CC1 | inactive: 7.71% | –
CC(C)C(=O)Nc1nnc(S(=O)(=O)N2CCc3ccccc32)s1 | inactive: 6.74% | –
Nc1nc2[nH]cc(CCc3ccc(C(=O)N[C@@H](CCC(=O)O)C(=O)O)cc3)c2c(=O)[nH]1 | inactive: 1.16% | –
Cc1cccc(N2CCN(c3ccc4cc(S(=O)(=O)N5CCC(C)CC5)ccc4n3)CC2)c1C | inactive: -0.471% | –
CCOC(=O)c1c(NC(=O)Cc2coc3ccc(CC)cc23)sc2c1CCC2 | inactive: -2.39% | –
Cc1ccc(-n2ncc3c(NCCCn4ccnc4)ncnc32)cc1C | – | inactive
CCOc1ccc2nc(N3CCCC(C(=O)NCCc4ccc(Cl)cc4)C3)sc2c1 (stereo not given) | – | inactive
Cc1ccc(OCC(=O)Nc2ccc(OCc3cc(=O)n4c(C)csc4n3)cc2)cc1C | inactive: -7.62% | –
O=c1oc2ccccc2cc1-c1cn2cc(Cc3ccc(F)cc3)sc2n1 | inactive: 8.12% | –
CCc1ccc(NC(=O)CC(NCc2cccnc2)C(=O)O)cc1 (stereo not given) | inactive: 7.76% | –
CCOC(=O)c1c(C)oc2ncnc(Nc3cccc(C(F)(F)F)c3)c12 | inactive: 4.35% | –
CCOC(=O)c1cccc(NC(=O)Cn2ncc3c(=O)oc4ccccc4c32)c1 | inactive: 6.15% | –
Cn1c(=O)c2c(nc(SCC(=O)Nc3ccccc3F)n2Cc2ccccc2F)n(C)c1=O | inactive: -1.27% | –
COc1ccc(CNC(=O)C(=O)NCC(c2ccco2)S(=O)(=O)c2ccc(Cl)cc2)cc1 (stereo not given) | inactive: -6.86% | –
Cc1nc(-c2ccc(Cl)cc2)sc1CCNC(=O)C(=O)Nc1ccc2c(c1)OCO2 | inactive: 1.64% | –
CSc1ccc(CCNC(=O)Cn2nc(C)n3c(cc4sccc43)c2=O)cc1 | – | inactive
Cc1nn(CC(=O)NC2CC2)c(=O)c2cc3cc(F)ccc3n12 | – | inactive
Cc1ccc(NC(=O)c2ccc3c(c2)NC(=O)c2ccccc2S3)c(Cl)c1 | inactive: -6.57% | –
Cc1ccc(Cn2ccnc2SCC(=O)NCc2ccccc2)cc1 | – | inactive
CCOc1ccccc1Nc1sc(C(=O)c2ccccc2)c(N)c1C(=O)Nc1ccc(F)cc1 | inactive: -11% | –
CC(C)COc1ccc(C(=O)N2CCCCC2CCN2CCOCC2)cc1 (stereo not given) | inactive: 14.2% | –
COc1ccc(OC)c(CCNC(=O)c2nc(-c3ccc(Cl)cc3)n3c2CCCCC3)c1 | inactive: 2.7% | –
Cc1cccc(-c2nn(C(=S)Nc3ccccc3)cc2-c2ccnc3ccccc23)n1 | inactive: 10% | –
Cc1c(C)n(Cc2ccc(Cl)cc2)c2ccc(C(=O)N3CCN(c4ccccc4F)CC3)cc12 | inactive: 4.88% | –

SMILES | activity change, negative = inhibition | outcome
COc1cc(C2CC(=O)Nc3cc4c(cc32)OCO4)cc(OC)c1O (stereo not given) | – | inactive
Cc1ccc(C(=O)c2oc3ccccc3c2NC(=O)COc2ccc(Cl)c(C)c2)cc1 | inactive: 0.313% | –
COc1cccc(CNC(=O)C2CCCN(c3nnc(-n4c(C)ccc4C)s3)C2)c1OC (stereo not given) | – | inactive
Cc1ccc(C(=O)CSc2nc(C)cc(C)c2C(=O)Nc2cccc(C)c2)cc1 | inactive: -0.245% | –
CCc1cccc(CC)c1NC(=O)CN(C)S(=O)(=O)c1ccc2c(c1)n(C)c(=O)c(=O)n2C | inactive: 5.19% | –
CSc1nn(Cc2ccc(F)cc2)c(N(C(C)=O)C(C)=O)c1S(=O)(=O)c1ccccc1 | inactive: 0.615% | –
CCC(=O)N1CCc2cc(Br)cc(S(=O)(=O)N3CCCC(C(=O)NCc4ccc(C)cc4)C3)c21 (stereo not given) | inactive: 35.7% | –
Cc1ccc(-n2c3nc(=O)n(C)c(=O)c-3cc3ccccc32)c(C)c1 | inactive: -0.132% | –
CCSc1nc(-c2ccc(OC)cc2)nc2c1Cc1c(CO)cnc(C)c1O2 | – | inactive
Cc1cccc(NC(=O)CSc2cn(CC(=O)N3CCOCC3)c3ccccc23)c1C | inactive: -6.43% | –
Cc1ccc2nc(COc3ccccc3NC(=O)Nc3ccc(F)c(Cl)c3)cc(=O)n2c1 | inactive: 5.97% | –
CC(=O)N1CCCc2ccc(NC(=O)c3ccc(OC(C)C)cc3)cc21 | inactive: 4.76% | –
Cc1nc2c3ccccc3nc(NNC(=O)CCC(=O)N3CCN(c4ccc(F)cc4)CC3)n2n1 | inactive: 0.0808% | –
O=C(Nc1ccc(OC(F)(F)F)cc1)c1cc(-c2ccc(Cl)cc2)on1 | inactive: 4.7% | –
Cc1cc2c(cc1S(=O)(=O)NCc1ccc(F)cc1)OCCN2C | inactive: -2.22% | –
CCCCN(Cc1cc2cc(C)ccc2[nH]c1=O)C(=O)c1cccc(Cl)c1 | inactive: 0.158% | –
CCc1ccc(NC(=O)Cn2ncn3c(cc4ccccc43)c2=O)cc1 | inactive: -7.02% | –
Cc1ccc2c(=O)cc(C(=O)Nc3c(C)cccc3C)oc2c1 | inactive: -8.67% | –
COc1ccc(/C=C/c2nc(C#N)c(N3CCCCC3)o2)cc1OC | inactive: -19% | –
COc1cccc2cc(-c3nc4sc5c(c4c(=O)[nH]3)CCC(C(C)(C)C)C5)c(=O)oc12 (stereo not given) | inactive: 6.92% | –
COc1ccc(S(=O)(=O)c2c(Nc3cccc(Cl)c3)sc(C(=O)c3ccccc3)c2N)cc1 | inactive: 2.89% | –
Cc1cc(C)c(Cn2c(=O)n(CCCC(=O)NCc3ccc4c(c3)OCO4)c(=O)c3sccc32)c(C)c1 | – | inactive
Cc1ccc2nc(Cl)c3cc(C(=O)N4CCCCC4)sc3c2c1 | inactive: -15.7% | –
Cn1c(=O)c2c(-c3ccc(Cl)cc3)n(CCc3ccccc3)cc2n(C)c1=O | – | inactive

SMILES | activity change, negative = inhibition | outcome
COC(=O)c1cc(S(=O)(=O)NCC2CCN(Cc3cccc(F)c3)CC2)cn1C | inactive: 5.59% | –
Cc1ccc(-n2ncc(C(=O)NCc3ccco3)c2C2CCN(C(=O)OC(C)(C)C)CC2)cc1 | – | inactive
CNC(=O)C1CCC(Cn2c(=O)c3sccc3n(CC(=O)N3CCC(C)CC3)c2=O)CC1 (stereo not given) | inactive: 14.6% | –
Cn1c(=O)c2c(nc(SCC(=O)Nc3ccc(F)c(F)c3)n2Cc2ccccc2F)n(C)c1=O | inactive: -2.55% | –
COc1ccc(CCNC(=O)c2cc(=O)c3cc(C)c(C)cc3o2)cc1OC | inactive: -5.84% | –
COc1ccc(N2CCN(Cc3nc4c(c(=O)[nH]c(=O)n4C)n3Cc3ccccc3F)CC2)cc1 | inactive: 4.34% | –
COc1ccc(N(C(=O)Cn2nnc3ccccc32)C(C(=O)NCc2ccccc2)c2ccc(F)cc2)cc1 (stereo not given) | inactive: -6.97% | –
Cn1nnc2c(NCc3c(F)cccc3F)ncnc21 | inactive: -27.2% | –
COc1ccc(-c2noc(CNC(=O)COc3cccc(C)c3C)n2)cc1 | – | inactive
O=C(COCc1cc(-c2ccc3c(c2)OCO3)on1)Nc1cc(Cl)ccc1O | – | inactive
COc1ccc(CCNC(=O)C(=O)NCC(c2cccs2)S(=O)(=O)c2ccc(F)cc2)cc1 (stereo not given) | inactive: 3.45% | –
O=C(NCCc1ccc(Cl)cc1)C1CCN(S(=O)(=O)c2ccc3[nH]ccc3c2)CC1 | inactive: 7.73% | –
COc1ccc(-c2nc(CSCC(=O)NCc3ccccc3Cl)c(C)o2)cc1OC | – | inactive
CCOC(=O)c1c(C)oc2nc(C)nc(NCCCN3CCN(c4cc(C)ccc4C)CC3)c12 | inactive: -2.55% | –
Cc1ccc(CCNC(=O)c2ccc(Nc3nc4ccccc4n4nnnc34)cc2)cc1 | inactive: 1.63% | –
COc1cc(NC(=O)C2CCN(S(=O)(=O)c3c(C)noc3/C=C/c3ccccc3F)CC2)cc(OC)c1OC | – | inactive
COc1cccc(/C=C/c2nc(C#N)c(N3CCN(C)CC3)o2)c1 | inactive: -1.71% | –
FC(F)(F)c1cccc(Nc2c3c(nc4ccc(Cl)cc24)CCC3)c1 | inactive: -6.04% | –
CC(NC(=O)c1ccc2c(c1)sc1nc(-c3ccc(F)cc3)cn12)C12CC3CC(CC(C3)C1)C2 (stereo not given) | inactive: 6.25% | –
COc1cc(OC)c(NC(=O)CCc2c(C)nc3c4c(C)cc(C)nc4nn3c2C)cc1Cl | inactive: -1.44% | –
CCCCCN1C(C(=O)c2ccccc2)=C(OC(=O)CC)c2ccccc2S1(=O)=O | inactive: -23.3% | –
COc1ccc(NC(=O)CCn2cnc3onc(-c4ccc(F)cc4)c3c2=O)cc1OC | – | inactive
CC1Cn2c(C(=O)NCc3ccccc3Cl)cc3cccc(c32)S1 (stereo not given) | inactive: -18.7% | –
CCC(Sc1nc2n[nH]c(C)c2c(=N)n1-c1ccccc1Cl)C(=O)N(CC)CC (stereo not given) | inactive: 4.69% | –

SMILES | activity change, negative = inhibition | outcome
CCN(CCCNC(=O)Cn1ncc2c([nH]c3ccc(C)cc32)c1=O)c1ccccc1 | – | inactive
N#Cc1cc2c(=O)n3ccccc3nc2n(-c2nnc(SCc3ccccc3Cl)s2)c1=O | inactive: 0.796% | –
Cc1cccc(NC(=O)c2cc3c(=O)n(Cc4cccnc4)ccc3nc2C)c1 | inactive: 4.24% | –
Cc1ccccc1OCC(=O)Nc1ccccc1OCc1cc(=O)n2ccccc2n1 | inactive: 4.7% | –
COc1ccnc(CS(=O)c2nc3ccc(OC(F)F)cc3[nH]2)c1OC (stereo not given) | inactive: 0.847% | –
COc1ccc(OC(=O)c2nc(SCc3ccccc3C)ncc2Cl)cc1 | – | inactive
CC(C)c1nn2c(=O)cc(COC(=O)c3ccc(NC(=O)c4cccs4)cc3)nc2s1 | – | inactive
O=C(NCC(c1cccs1)S(=O)(=O)c1cccs1)c1c(F)cccc1F (stereo not given) | inactive: -2.07% | –
CCCOc1ccc(C(=O)N(Cc2ccco2)Cc2ccco2)cc1 | inactive: -20.3% | –
COc1ccc(CCNC(=O)CCc2c(C)nc3cc(-c4cccc(F)c4)nn3c2C)cc1OC | inactive: -24.9% | –
Cc1ccc(S(=O)(=O)NCCc2nnc3ccc(SCC(=O)Nc4ccc(F)cc4F)nn23)cc1 | inactive: -8.18% | –
CCOC(=O)Cn1c(=O)n(CC2CCCO2)c2nc(-c3cc(OC)ccc3OC)nc(C(N)=O)c21 (stereo not given) | inactive: 9.75% | –
COc1ccccc1-n1c(=O)n(C)c2c(C(N)=O)nc(-c3cccc(OC)c3OC)nc21 | inactive: 20.1% | –
Cc1cc(C)c2c(CC(=O)Nc3cc(C(F)(F)F)ccc3Cl)coc2c1 | inactive: -7.44% | –
COc1ccc(C(=O)Nc2cccc(C(=O)OCc3cc(=O)n4c5c(sc4n3)CCCC5)c2)cc1 | inactive: 17.8% | –
COc1cccc(CSc2nc3n(n2)C(CC(C)C)C(C(=O)Nc2ccccc2C)=C(C)N3)c1 (stereo not given) | inactive: 3.55% | –
Cc1ccc(CCNC(=O)CCCc2nnc3n(C)c(=O)c4sccc4n23)cc1 | inactive: 6.85% | –
CCN(CC)c1nn2c(=O)c(C(=O)NCCc3cccc(C)c3)cnc2s1 | inactive: -0.426% | –
CCCN1CCc2nc(N3CCN(C)CC3)ncc2C1 | inactive: -11.9% | –
Cc1ccc2nc(-c3ccccn3)c(Nc3ccccc3C)n2c1 | – | inactive
O=C(C1CCCN(S(=O)(=O)c2cccc3nsnc23)C1)N1CCN(c2cccc(Cl)c2)CC1 (stereo not given) | inactive: 37.5% | –
Cc1cccc(Cn2c(=O)n(-c3ccccc3C)c(=O)c3c2c2cc(C)ccc2n3C)c1 | – | inactive
COc1ccc(S(=O)(=O)NCCc2csc3nc(-c4ccccc4)nn23)cc1OC | – | inactive
